Where “and” joins values, the source holds several entries; their conditions need not be identical. Equal entries are not always repeated. Blank lines part the entries; values can stand above or below the binder they belong to.
Assays:
[1] = molecular target: T1, IL-18/IL-15RαSu fusion protein (human); assay: co-expression in CHO-K1 cells
T1 construct: Second chimeric polypeptide of 12t15/18s

[2] = molecular target: T2, TGFβ receptor II/IL-15RαSu fusion protein (TGFRs) (human); assay: co-expression in CHO-K1 cells
T2 construct: Second chimeric polypeptide of TGFRt15-TGFRs; also called TGFβR/IL-15RαSu
T2 chain: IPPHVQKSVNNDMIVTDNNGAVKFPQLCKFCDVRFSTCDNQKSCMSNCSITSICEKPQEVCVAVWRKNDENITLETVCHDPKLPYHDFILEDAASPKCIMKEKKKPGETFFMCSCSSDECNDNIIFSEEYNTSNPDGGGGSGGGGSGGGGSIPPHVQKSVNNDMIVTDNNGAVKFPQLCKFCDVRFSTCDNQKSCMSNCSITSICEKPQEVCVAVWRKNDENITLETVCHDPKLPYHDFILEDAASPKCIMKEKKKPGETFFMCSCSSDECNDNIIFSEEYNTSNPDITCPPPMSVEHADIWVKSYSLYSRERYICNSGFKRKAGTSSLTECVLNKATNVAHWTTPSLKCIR

[3] = molecular target: IL-2Rα, IL-2Rβ and common γ chain on CTLL-2 cells; assay: cell-based or functional assay
[4] = molecular target: IL-2Rβ and common γ chain on 32Dβ cells; assay: cell-based or functional assay
[5] = molecular target: T3, IL-12/IL-15RαSu fusion protein (human); assay: co-expression in CHO-K1 cells; complex purified by anti-TF affinity and size exclusion chromatography
T3 construct: Second chimeric polypeptide of 18t15-12s
T3 chain: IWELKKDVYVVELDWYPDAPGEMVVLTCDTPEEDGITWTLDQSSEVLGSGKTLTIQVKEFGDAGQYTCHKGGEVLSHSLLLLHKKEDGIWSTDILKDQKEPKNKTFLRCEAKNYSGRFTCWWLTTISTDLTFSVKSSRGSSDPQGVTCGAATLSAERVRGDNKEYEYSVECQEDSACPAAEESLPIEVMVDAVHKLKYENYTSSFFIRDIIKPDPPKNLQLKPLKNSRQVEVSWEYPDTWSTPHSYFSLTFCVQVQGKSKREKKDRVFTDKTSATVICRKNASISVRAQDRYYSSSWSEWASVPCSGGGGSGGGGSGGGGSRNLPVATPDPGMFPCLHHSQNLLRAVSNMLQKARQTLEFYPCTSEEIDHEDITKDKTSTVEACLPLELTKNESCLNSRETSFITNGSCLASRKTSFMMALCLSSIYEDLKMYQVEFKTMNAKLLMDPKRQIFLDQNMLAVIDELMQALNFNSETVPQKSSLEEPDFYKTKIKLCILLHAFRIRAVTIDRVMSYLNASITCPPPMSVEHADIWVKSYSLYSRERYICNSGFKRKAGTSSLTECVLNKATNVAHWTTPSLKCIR

[6] = molecular target: T4, IL-21/IL-15RαSu fusion protein (human); assay: co-expression in CHO-K1 cells; complex purified by anti-TF (IgG1) affinity and size exclusion chromatography
T4 construct: Second chimeric polypeptide of 7t15-21s; also called IL-21/IL-15Rα sushi domain

B1: IL-12/TF/IL-15 fusion protein (other)
chain: IWELKKDVYVVELDWYPDAPGEMVVLTCDTPEEDGITWTLDQSSEVLGSGKTLTIQVKEFGDAGQYTCHKGGEVLSHSLLLLHKKEDGIWSTDILKDQKEPKNKTFLRCEAKNYSGRFTCWWLTTISTDLTFSVKSSRGSSDPQGVTCGAATLSAERVRGDNKEYEYSVECQEDSACPAAEESLPIEVMVDAVHKLKYENYTSSFFIRDIIKPDPPKNLQLKPLKNSRQVEVSWEYPDTWSTPHSYFSLTFCVQVQGKSKREKKDRVFTDKTSATVICRKNASISVRAQDRYYSSSWSEWASVPCSGGGGSGGGGSGGGGSRNLPVATPDPGMFPCLHHSQNLLRAVSNMLQKARQTLEFYPCTSEEIDHEDITKDKTSTVEACLPLELTKNESCLNSRETSFITNGSCLASRKTSFMMALCLSSIYEDLKMYQVEFKTMNAKLLMDPKRQIFLDQNMLAVIDELMQALNFNSETVPQKSSLEEPDFYKTKIKLCILLHAFRIRAVTIDRVMSYLNASSGTTNTVAAYNLTWKSTNFKTILEWEPKPVNQVYTVQISTKSGDWKSKCFYTTDTECDLTDEIVKDVKQTYLARVFSYPAGNVESTGSAGEPLYENSPEFTPYLETNLGQPTIQSFEQVGTKVNVTVEDERTLVRRNNTFLSLRDVFGKDLIYTLYYWKSSSSGKKTAKTNTNEFLIDVDKGENYCFSVQAVIPSRTVNRKSTDSPVECMGQEKGEFRE[… about 120 residues …]
notes: First chimeric polypeptide of 12t15/18s
binding result [1]: binds

B2: TGFβ receptor II/TF/IL-15 fusion protein (TGFRt15) (other)
chain: IPPHVQKSVNNDMIVTDNNGAVKFPQLCKFCDVRFSTCDNQKSCMSNCSITSICEKPQEVCVAVWRKNDENITLETVCHDPKLPYHDFILEDAASPKCIMKEKKKPGETFFMCSCSSDECNDNIIFSEEYNTSNPDGGGGSGGGGSGGGGSIPPHVQKSVNNDMIVTDNNGAVKFPQLCKFCDVRFSTCDNQKSCMSNCSITSICEKPQEVCVAVWRKNDENITLETVCHDPKLPYHDFILEDAASPKCIMKEKKKPGETFFMCSCSSDECNDNIIFSEEYNTSNPDSGTTNTVAAYNLTWKSTNFKTILEWEPKPVNQVYTVQISTKSGDWKSKCFYTTDTECDLTDEIVKDVKQTYLARVFSYPAGNVESTGSAGEPLYENSPEFTPYLETNLGQPTIQSFEQVGTKVNVTVEDERTLVRRNNTFLSLRDVFGKDLIYTLYYWKSSSSGKKTAKTNTNEFLIDVDKGENYCFSVQAVIPSRTVNRKSTDSPVECMGQEKGEFRE[… about 120 residues …]
notes: First chimeric polypeptide of TGFRt15-TGFRs; also called TGFβR/TF/IL-15
binding result [2]: binds

B3: IL-2/TF/IL-2 single-chain chimeric polypeptide (2t2) (other)
chain: [… about 150 residues …]SGTTNTVAAYNLTWKSTNFKTILEWEPKPVNQVYTVQISTKSGDWKSKCFYTTDTECDLTDEIVKDVKQTYLARVFSYPAGNVESTGSAGEPLYENSPEFTPYLETNLGQPTIQSFEQVGTKVNVTVEDERTLVRRNNTFLSLRDVFGKDLIYTLYYWKSSSSGKKTAKTNTNEFLIDVDKGENYCFSVQAVIPSRTVNRKSTDSPVECMGQEKGEFRE[… about 150 residues …]
EC50, CTLL-2 cell proliferation (WST1) [3]: 0.0907 nM and 0.123 nM | EC50, 32Dβ cell proliferation (WST1) [4]: 0.0706 nM and 0.158 nM

Further lines, results first:

binding result [5]: binds
B4: IL-18/TF/IL-15 fusion protein (other)
chain: [… about 150 residues …]SGTTNTVAAYNLTWKSTNFKTILEWEPKPVNQVYTVQISTKSGDWKSKCFYTTDTECDLTDEIVKDVKQTYLARVFSYPAGNVESTGSAGEPLYENSPEFTPYLETNLGQPTIQSFEQVGTKVNVTVEDERTLVRRNNTFLSLRDVFGKDLIYTLYYWKSSSSGKKTAKTNTNEFLIDVDKGENYCFSVQAVIPSRTVNRKSTDSPVECMGQEKGEFRE[… about 120 residues …]
notes: First chimeric polypeptide of 18t15-12s

binding result [6]: binds
B5: IL-7/TF/IL-15 fusion protein (other)
chain: DCDIEGKDGKQYESVLMVSIDQLLDSMKEIGSNCLNNEFNFFKRHICDANKEGMFLFRAARKLRQFLKMNSTGDFDLHLLKVSEGTTILLNCTGQVKGRKPAALGEAQPTKSLEENKSLKEQKKLNDLCFLKRLLQEIKTCWNKILMGTKEHSGTTNTVAAYNLTWKSTNFKTILEWEPKPVNQVYTVQISTKSGDWKSKCFYTTDTECDLTDEIVKDVKQTYLARVFSYPAGNVESTGSAGEPLYENSPEFTPYLETNLGQPTIQSFEQVGTKVNVTVEDERTLVRRNNTFLSLRDVFGKDLIYTLYYWKSSSSGKKTAKTNTNEFLIDVDKGENYCFSVQAVIPSRTVNRKSTDSPVECMGQEKGEFRE[… about 120 residues …]
notes: First chimeric polypeptide of 7t15-21s

Source: patent US20210338724A1 (IMMUNITYBIO, published 2021)
